The campaign covered roughly 46,000 compounds. About 60 (0.1%) were called active. Another 3% or so got no clear call; they are omitted. Calls come from the whole dose curve; as a rule, active = well fitted inhibition curve with a large enough effect; inconclusive = small, poorly fitted or top-dose-only effect; inactive = no such curve, though single readings can be large or run the other way. The list shows a part of the results.
Experiment: Primary qHTS assay for Inhibitors of ovarian cancer metastasis using an organotypic tumor microenvironment (TME) model.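 For activity change, negative = inhibition: plate controls were DMSO wells for no effect and tomatine positive control wells for full effect.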 Note: nearly all actives have a fitted effect of over 65% in size.
Conditions: SKOV3ip1-GFP adhesion/invasion on 3D omental model, fluorescence; series mostly up to 45.8 µM; activity change, negative = inhibition: at the top concentration
Procedure, shortened: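 A 3D layer of primary human omental fibroblasts, mesothelial cells, fibronectin and collagen I, grown 48 hr, received SKOV3ip1-GFP cells in serum-free medium plus compounds at 0.36-46 umol/L. After 2 hr RT and 16 hr 37 C, fixed adherent GFP cells were counted; normalized to DMSO and tomatine.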

Activity change, negative = inhibition, inactive:
CCn1c(SCc2ccc(F)cc2Cl)nnc1-c1nonc1NC(C)=O -4.71%
Cc1ccc2c(c1)N(C(=O)C1CCN(S(=O)(=O)c3c(C)noc3/C=C/c3ccccc3F)CC1)CCO2 7.23%
O=C(Nc1nnc(S(=O)(=O)N2CCCc3ccccc32)s1)c1cccc(F)c1 7.06%
COc1ccc(N(C(=O)c2cccc(C)c2)S(=O)(=O)c2ccc(C)cc2)cc1 -0.347%
COC(=O)C1CCN(CC(=O)Nc2cc(C)c3c(=O)oc4ccccc4c3n2)CC1 20.4%
Cc1cc(C)c(NC(=O)Cn2ccn(-c3cccc(Cl)c3)c(=O)c2=O)c(C)c1 -3.68%
O=C(CCC1N=C2c3ccccc3N=C(SCc3ccccc3F)N2C1=O)NCCc1ccccc1 (centres undefined) -6.88%
COc1ccccc1CNC(=O)Cc1csc2nc(-c3ccccc3)cn12 14.8%
Cc1ccc(CNC(=O)c2ccc3c(c2)N(Cc2ccccc2)C(=O)c2ccccc2S3(=O)=O)cc1 -0.244%
Cc1cccc(CCNC(=O)c2cnc3c(C)cccn3c2=O)c1 3.88%
COc1ccc(/C=C/C(=O)Nc2nc3n(n2)C(c2ccccc2)C=C(c2ccc(Cl)cc2)N3)cc1 (centres undefined) -6.98%
COc1ccc2oc(=O)c(-c3cn4c(n3)sc3cc(OC)ccc34)cc2c1 -7.31%
COc1ccc(OC)c(CNC(=O)Cn2nc(C)c3nn(-c4ccc(Cl)cc4)c(C)c3c2=O)c1 0.272%
CCOc1ccccc1CNC(=O)c1ccc(NC(=O)N2CCSc3ncccc32)cc1 -4.85%
Fc1ccc(-n2ncc3c(N4CCC(Cc5ccccc5)CC4)ncnc32)cc1 3.53%
COc1ccc(CNC(=O)CCNS(=O)(=O)c2cccc3nsnc23)cc1 19.8%
Clc1ccc(N2CCN(c3ncnc4c3cnn4-c3ccccc3)CC2)cc1Cl -11.7%
C[C@@H](CN1CC(=O)NC(=O)C1)N1CC(=O)NC(=O)C1 -10.2%
CCc1ccccc1NC(=O)Nc1nnc(N(C)Cc2ccccc2)s1 -7.85%
Cc1sc2ncn(CC(=O)Nc3ccc(F)cc3F)c(=O)c2c1S(=O)(=O)N1CCC(C)CC1 -16.9%
CCOc1ccccc1NC(=O)N1CCC(n2c(C)nc3cccnc32)CC1 -4.61%
CCCNC(=O)c1cnn2c(C)c(Cc3c(C)cc(C)cc3C)c(C)nc12 -2.11%
COc1ccc(NC(=O)c2cc3nc(-c4ccc(Cl)c(Cl)c4)cc(C(F)(F)F)n3n2)c(OC)c1 15.5%
Cc1ccc(CCNC(c2ccc(F)cc2)c2nnc(-c3ccccc3Cl)o2)cc1 (centres undefined) -3.11%
COc1ccc(CNC(=O)CCc2cn(C)c3ccccc23)cc1 12.4%
Cc1c(-c2nnc(SCC(=O)Nc3ccccc3F)o2)nnn1-c1ccc(F)cc1 -7.01%
CC(=O)N1CCc2cc(S(=O)(=O)NC(CC(C)C)C(=O)Nc3ccc(C(C)C)cc3)ccc21 (centres undefined) -9.71%
CCOc1ccc(CNC(=O)c2cccc(NC(=O)N3CCSc4ncccc43)c2)cc1 6.23%
COc1ccc(CNC(=O)c2ccc3nc(CCc4ccccc4)oc3c2)cc1OC -13.6%
CCn1c(C(=O)N2CCC(C(=O)N3CCN(c4cc(C)ccc4C)CC3)CC2)cc2sccc21 -14%
CC(C)CC(=O)Nc1nc2c(s1)CC(C(C)(C)C)CC2 (centres undefined) -11.3%
CCOC(=O)N1CCc2c(sc3c2c(=O)n(Cc2ccccc2)c(=O)n3Cc2cc(C)ccc2C)C1 -7.02%
Cc1cc(-c2ccc(C)c(S(=O)(=O)N3CCC(C)CC3)c2)on1 -2.75%
COc1ccc(CC(=O)NC2CC(=O)N(c3cccc(F)c3)C2)cc1OC (centres undefined) -23.9%
Cc1ccc(C2=Nc3ccccc3N(CC(=O)Nc3ccccc3F)C(=O)C2)cc1C -13.3%
CCN(CC)CCCNC(=O)Cc1ccc(NC(=O)N2CCCCc3ccccc32)cc1 4.78%
O=c1oc2ccccc2cc1-c1nnc(Nc2ccc(Cl)cc2Cl)s1 0.716%
O=C(Nc1cccc(Cl)c1)c1ccc2nc(CCc3ccccc3)oc2c1 -8.22%
CCC1Oc2ccc(C)cc2N(CC(=O)NCc2ccc(OC)cc2)C1=O (centres undefined) 10.2%
CC(C)Oc1ccc(CNC(=O)C2CCN(c3nc4ccccc4nc3C(F)(F)F)CC2)cc1 -26.2%
COc1cc(OC)c(NC(=O)C2CCN(C(=O)c3sc4nc[nH]c(=O)c4c3C)CC2)cc1Cl -5.37%
CC(=O)NC1CC(=O)N(c2ccc3c(c2)OCCO3)C1 (centres undefined) 0.267%
CCC(=O)N1CCc2cc(Br)cc(S(=O)(=O)N3CCC(C(=O)Nc4ccccc4CC)CC3)c21 7.54%
CCOc1cccc(C(=O)N2CCC(c3nc4ccccc4s3)CC2)c1 -2.26%
Cn1nc(-c2ccccc2F)c2cc(C(=O)NCCc3ccc(Cl)cc3)sc21 -23.5%
O=C(c1ccc(Br)cc1)N1CCN(CCc2ccncc2)CC1 19.4%
CCOC(=O)C1CCN(C(c2cccc(F)c2)c2c(O)cc(C)n(Cc3ccco3)c2=O)CC1 (centres undefined) 0.391%
Cc1ccc(S(=O)(=O)Cc2ccc(C(=O)NCCc3ccc(Cl)cc3)o2)cc1 -27.3%
Brc1cccc(-c2nnc(CN3CCN(c4ccccn4)CC3)o2)c1 -1.1%
CN(C)c1ccc(CNC(=O)c2cnc3sc(N4CCOCC4)nn3c2=O)cc1 -6.27%
CC(=O)c1ccc(NC(=O)CSc2ccc(-c3cccs3)nn2)cc1 1.39%
CCOc1ccc(-c2nc(SCC(=O)c3ccccc3)n[nH]2)cc1 -7.63%
CCOC(=O)c1c(S(=O)(=O)N2CCCC(C(=O)Nc3cc(C)ccn3)C2)c(C)n(C)c1C (centres undefined) -9.39%
CCOC(=O)c1ccc(NC(=O)CCC(=O)N2Cc3ccccc3Oc3ncccc32)cc1 -4.79%
COc1ccc(OC)c(NC(=O)C2CCN(S(=O)(=O)c3ccc4c(c3)CCCC(=O)N4)CC2)c1 -12.7%
O=C(NC1CCCCC1)c1ccc(CSc2nc3cccnc3n2Cc2ccc(F)cc2)cc1 -4.04%
CCOC(=O)c1cc(C)n(CC2CCC(C(=O)Nc3cccc(C)c3)CC2)c1C (centres undefined) 27.3%
COC(=O)C1=C(C)NC(=O)C1(NC(=O)c1cc(OC)c(OC)c(OC)c1)C(F)(F)F (centres undefined) -6.79%
Cc1cccc(Nc2nnc(-c3ccc(C)c(S(=O)(=O)NCC4CCCO4)c3)c3ccccc23)c1 (centres undefined) 6.07%
CCOC(=O)c1ccc(N2C(=O)c3n[nH]c(-c4ccco4)c3C2c2ccc(O)c(OCC)c2)cc1 (centres undefined) -1.68%
Cc1cccc(-n2c(Cc3ccccc3)nnc2SCc2nc(-c3cccs3)no2)c1 9.02%
O=C1c2[nH]nc(-c3ccccc3O)c2C(c2ccccc2F)N1Cc1cccnc1 (centres undefined) 2.38%
O=C(CN1C(=O)COc2ccc(S(=O)(=O)N3CCCC3)cc21)N1CCN(c2ccc(F)cc2)CC1 -24%
COC(=O)c1ccc(NC(=O)CN2C(=O)CCc3cc(S(=O)(=O)N4CCCCC4)ccc32)cc1 67.2%
Cc1cnc(CNC(=O)c2c(=O)c3ccc(N4CCCN(C)CC4)nc3n3c2sc2ccccc23)cn1 2.27% [at 23.2 µM]
Cc1[nH]c(=O)[nH]c(=O)c1S(=O)(=O)N1CCN(c2ccccc2Cl)CC1 6.57%
O=C(O)CCn1c(=O)c2cccn2c2cccnc21 -8.54%
CCOC(=O)c1cc(-c2ccccc2)n(CCCC(=O)Nc2cccc(C)c2C)c1C -2.98%
CCc1ccccc1Nc1nn2c(=O)c3ccc(C(=O)NC(C)c4ccccc4)cc3nc2s1 (centres undefined) -3.35%
CCc1ccc(NC(=O)CC2C(=O)N(c3ccc(Cl)cc3)C(=O)N2Cc2ccco2)cc1 (centres undefined) 8.07%
COc1ccccc1NC(=O)c1sc2nc(C)c(C(=O)Nc3ccc(C)cc3C)c(-c3cccs3)c2c1N 8.02%
CCOC(=O)c1c(C)[nH]c(CCC(=O)NCc2ccc(F)cc2)c1C -6.46%
CC(C)(C)C1CCc2c(sc3nc(-c4cc5cc(Br)ccc5oc4=O)[nH]c(=O)c23)C1 (centres undefined) 7.85%

outcome, inactive:
CC(C)(C)c1ccc(S(=O)(=O)c2cn(CC(=O)Nc3ccccc3)c3ccccc3c2=O)cc1
COc1ccc(NC(=O)c2cc(S(=O)(=O)N3CCCCCC3)cn2C)cc1Cl
COc1cccc(N2CCN(S(=O)(=O)c3cn(C)c(C)n3)CC2)c1
COc1ccc(C(=O)NC2CC(=O)N(c3ccc4c(c3)OCCO4)C2)cc1 (centres undefined)
CC(=O)N1c2ccc(S(=O)(=O)N3CCCCCC3)cc2CC1C(=O)NC(C)C (centres undefined)
CCc1nn(CCCC(=O)N2CCN(c3cc(Cl)ccc3C)CC2)c(=O)c2cc3occc3n12
COc1ccccc1Nc1sc(C(=O)c2ccc3c(c2)OCO3)c(N)c1S(=O)(=O)c1ccccc1
CCOC(=O)c1c(C)n(S(=O)(=O)c2ccc(C)cc2C)c2ccc(NS(=O)(=O)c3ccc(C)cc3C)cc12
CCCn1c2ccccc2c2cnn(CC(=O)NCc3ccccc3Cl)c(=O)c21
Cc1ccc(-c2nc3cc(Cl)ccc3o2)cc1NC(=O)c1cc([N+](=O)[O-])ccc1N1CCOCC1
COc1cccc(C2CC(=O)Nc3cc4c(cc32)OCO4)c1OC(C)C (centres undefined)
Cc1nc(-c2ccccc2)sc1-c1ccc(SCC(=O)Nc2cccc(C(F)(F)F)c2)nn1
COc1ccc(-c2noc(N(c3cccc(Cl)c3)c3nc(-c4ccc(OC)c(OC)c4)no3)n2)cc1OC
COCCCNC(=O)c1cnc2c(-c3ccc(F)cc3)c(C)nn2c1C
C=Cc1ccc(Cn2nc(-c3ccc(C)cc3)ccc2=O)cc1
Cc1cc(C)nc(NC(=NCCc2c[nH]c3ccc(Cl)cc23)NC(=O)c2ccccc2C)n1
COCCNc1ccc(-c2nc(-c3ccco3)no2)cc1[N+](=O)[O-]
O=C1CC(c2nnc(Cc3ccc(F)cc3Cl)o2)CN1c1ccccc1 (centres undefined)
N#Cc1ccccc1Cn1c(=O)n(-c2cccc(C(F)(F)F)c2)c(=O)c2sccc21
COc1ccc(S(=O)(=O)NCC(c2ccco2)N2CCN(c3ccccc3)CC2)cc1OC (centres undefined)
Cc1ccc(NC(=O)C(=O)NCC(c2cccnc2)N2CCN(c3ccccc3F)CC2)cc1Cl (centres undefined)
